# Where “and” joins values, the source holds several entries; their conditions need not be identical. Equal entries are not always repeated. The full ranking holds about 2,900 compounds; the median of “IRF Lucia reporter activity, fold change vs agonist alone” is about 0.9, and the highest 2% start at about 2.8. Some of the results follow.
# Columns and labels:
# [1] = tested on: RAW-Dual; assay: IRF Lucia reporter activity, fold change vs agonist alone; higher = enhanced IRF activity; conditions: library stock concentration (final ~1000-fold dilution): 10 mM; cytotoxicity flag (confluency mask): not cytotoxic; agonist: MPLA (TLR4) […]
# In short: (§1)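 Reporter activity is given as fold change relative to agonist-alone wells. To measure it, 50 nL of library stock was pin-tooled onto RAW-Dual macrophages (50,000 cells/well, DMEM, 384-well plates), a PRR agonist followed 1 h later, and cells stayed at 37 °C, 5% CO2. Twenty hours on, supernatant was assayed for IRF (QuantiLuc luminescence) and NF-κB (QuantiBlue, 620 nm absorbance), and wells under 70% of agonist-control IncuCyte confluency in both mask sets were marked cytotoxic.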
# [2] = tested on: RAW-Dual; assay: IRF Lucia reporter activity, fold change vs agonist alone; cytotoxicity flag (confluency mask): not cytotoxic; higher = enhanced IRF activity
# In short: as §1
# [3] = agonist: 3'3'-cGAMP (STING) 10 ug/mL
SMILES,IRF Lucia reporter activity [1],"IRF Lucia reporter activity [2, 3]",IRF Lucia reporter activity ([2]; agonist: LPS (TLR4) 0.1 ug/mL)
O=C1c2ccccc2-c2n[nH]c3cccc1c23,0.18,–,–
O=C1c2ccccc2-c2n[nH]c3cccc1c23 (library stock concentration (final ~1000-fold dilution): 10 mM),–,0.0638,0.205
CC(C)CC(NC(=O)CNC(=O)c1cc(Cl)ccc1Cl)B(O)O (configuration not stated) (library stock concentration (final ~1000-fold dilution): 10 mM),–,1,1.16
CC(C)CC(NC(=O)CNC(=O)c1cc(Cl)ccc1Cl)B(O)O (configuration not stated),1.08,–,–
CNC(=O)c1ccc(N2C(=S)N(c3cnc(C#N)c(C(F)(F)F)c3)C(=O)C23CCC3)cc1F,1.17,–,–
CNC(=O)c1ccc(N2C(=S)N(c3cnc(C#N)c(C(F)(F)F)c3)C(=O)C23CCC3)cc1F (library stock concentration (final ~1000-fold dilution): 10 mM),–,1.1,1.04
CC(NC(=O)c1c(N)nn2cccnc12)c1cc2cccc(C#Cc3cnn(C)c3)c2c(=O)n1-c1ccccc1 (configuration not stated) (library stock concentration (final ~1000-fold dilution): 10 mM),–,0.813,1.14
Cl.N=c1ccn2c(n1)OC1C(O)C(CO)OC12 (configuration not stated),0.879,–,–
Cl.N=c1ccn2c(n1)OC1C(O)C(CO)OC12 (configuration not stated) (library stock concentration (final ~1000-fold dilution): 10 mM),–,0.707,0.867
CC(C)(C)c1ccc(Cn2nc(-c3ccc(Cl)cc3)cc2C(=O)NO)cc1 (library stock concentration (final ~1000-fold dilution): 10 mM),–,1.05,1.16
CCC(C)C(=O)OC1CC(O)C=C2C=CC(C)C(CCC(O)CC(O)CC(=O)O)C21 (configuration not stated) (library stock concentration (final ~1000-fold dilution): 10 mM),–,1.01 and 0.999,1.13
Cc1c[nH]c(-c2cnc(NCCNc3ccc(C#N)cn3)nc2-c2ccc(Cl)cc2Cl)n1 (library stock concentration (final ~1000-fold dilution): 10 mM),–,0.367,0.257
Cc1c[nH]c(-c2cnc(NCCNc3ccc(C#N)cn3)nc2-c2ccc(Cl)cc2Cl)n1,0.317,–,–
Fc1ccc2[nH]ccc2c1-c1nc(N2CCOCC2)c2sc(CN3CCN(CC4CC4)CC3)cc2n1 (library stock concentration (final ~1000-fold dilution): 10 mM),–,0.732,2.74
CNC(=O)c1ccccc1Sc1ccc2c(/C=C/c3ccccn3)n[nH]c2c1 (library stock concentration (final ~1000-fold dilution): 10 mM),–,0.0455,0.5
CNC(=O)c1ccccc1Sc1ccc2c(/C=C/c3ccccn3)n[nH]c2c1,0.404,–,–
Cc1ccc(NC(=O)Nc2cc(C(F)(F)F)ccc2F)cc1Nc1ccc2c(c1)NC(=O)/C2=C\c1ccc[nH]1,0.314,–,–
Cc1ccc(NC(=O)Nc2cc(C(F)(F)F)ccc2F)cc1Nc1ccc2c(c1)NC(=O)/C2=C\c1ccc[nH]1 (library stock concentration (final ~1000-fold dilution): 10 mM),–,0.161,0.421
S=C=Nc1cccc(NC(=S)NCCCCNC(=S)Nc2cccc(N=C=S)c2)c1 (library stock concentration (final ~1000-fold dilution): 10 mM),–,0.49,0.49
S=C=Nc1cccc(NC(=S)NCCCCNC(=S)Nc2cccc(N=C=S)c2)c1,0.727,–,–
CCOc1cc(N2CCC(O)CC2)ccc1Nc1ncc2c(n1)N(C)c1ccccc1C(=O)N2C (library stock concentration (final ~1000-fold dilution): 10 mM),–,0.518,0.253
CCOc1cc(N2CCC(O)CC2)ccc1Nc1ncc2c(n1)N(C)c1ccccc1C(=O)N2C,0.32,–,–
CCOC(=O)C1=C(C)NC(C)=C(C(=O)OC)C1c1cccc([N+](=O)[O-])c1 (configuration not stated) (library stock concentration (final ~1000-fold dilution): 10 mM),–,1.45,0.876
CCOC(=O)C1=C(C)NC(C)=C(C(=O)OC)C1c1cccc([N+](=O)[O-])c1 (configuration not stated),0.949,–,–
NC1(C(=O)NC(CCO)c2ccc(Cl)cc2)CCN(c2ncnc3[nH]ccc23)CC1 (configuration not stated) (library stock concentration (final ~1000-fold dilution): 10 mM),–,0.588,0.888
Cc1cc(N=Nc2ccc3c(c2)CCC(=O)N3)c(N)cc1O (library stock concentration (final ~1000-fold dilution): 10 mM),–,0.15,0.146

# Reference: the supplement of paper PMC10037445
